The whole screen tested about 48,000 compounds, of which about 120 (0.25%) were called active. About 4% were inconclusive and are not listed. Calls follow the shape of the dose curve; as a rule, active = well fitted activation curve with a large enough effect; inconclusive = small, poorly fitted or top-dose-only effect, or another doubt; inactive = no such curve, though single readings can be large or run the other way. Some of the results follow.
experiment: Primary qHTS for Identification of Small Molecule Activators of Huntingtin-Antisense Promoter Activity; settings: HEK293 HTT-AS promoter firefly luciferase reporter, 24 h; series mostly up to 57.5 µM; activity change, positive = activation: at the top concentration; also: nearly all actives have a fitted effect of over 55% in size
Method in brief: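 Quantitative HTS used concentration series of up to 57.5 uM final on HEK293 luciferase reporter cells, 24 h at 37 degrees C. Readout was Dual-Glo firefly luminescence.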

Activity change, positive = activation, inactive:
COc1ccc(C(=O)N2CC(=O)Nc3ccc(F)cc3C2c2ccc(F)cc2)c(OC)c1 (stereo not given) -11.4%
CCOC(=O)c1sc(NC(=O)/C=C/c2ccc(OCC)cc2)c(C(=O)OCC)c1C 35.7%
COC(=O)c1cccc(Nc2c(-c3ccc(O)c(OC)c3)nc3nc[nH]n23)c1 -16.2%
CCOc1ccc(-c2c(C)nn3c(C)c(C(=O)Nc4ccccc4C(=O)OC)cnc23)cc1OCC -6.31%
Cn1c(=O)c2c(ncn2CC(O)CO)n(C)c1=O (stereo not given)
COCc1cc(C)nc2sc3c(c12)NC(c1ccc(O)cc1)N(c1ccc(OC)cc1)C3=O (stereo not given) -10.6%
CCOc1ccc(NC(=O)C2Cc3ccccc3N2C(=O)c2ccccc2)cc1 (stereo not given) -13.2%
CCCCOc1ccc(CNC(=O)C2CCN(c3nnc(-n4cccc4CNc4ccc(C)cc4)s3)CC2)cc1 -42.7%
COc1cc(Cn2c(=O)sc3ccccc32)ccc1OC(C)C -44.6%
COc1ccccc1NC(=O)Cc1c(C(=O)O)[nH]c2ccc(Cl)cc12 -4.48%
Cc1ccc(-c2nc3cc(C(C)C)ccc3o2)cc1NC(=O)c1cccs1 18.4%
COCCn1c(C)cc(O)c(C(c2ccccc2)N2CCN(C)CC2)c1=O (stereo not given) -1.39%
Cc1cccc(NC(=O)CSc2nc3ccc(NC(=O)c4ccco4)cc3s2)c1 -7.25%
Cc1cc(NC(=O)C(C)C)cc(-c2nc3ncccc3o2)c1O -9.49%
Cc1ccc2nc(-c3ccc(O)cc3)c(Nc3ccc4c(c3)OCO4)n2c1 0.383%
CC(C)N(Cc1ccccc1)C(=O)CCS(=O)(=O)c1cc2c(cc1Cl)NC(=O)CO2 -19.5%
Cc1cc(C)n2nc(SCC(=O)Nc3ccccc3)nc2n1 -1.16%
Cc1cc2nc(-c3cc(NC(=O)c4cc5ccccc5o4)ccc3Cl)oc2cc1C 13%
CCc1ccc(NC(=O)CSc2nc3n[nH]c(C)c3c(=N)n2-c2ccccc2C)cc1 -29.4%
CCCNC(=O)C1CCN(S(=O)(=O)c2ccc3c(c2)CCCN3C(C)=O)CC1 -9.7%
Cc1oc(-c2ccc(Cl)cc2)nc1CS(=O)CC(=O)NCc1ccc(Cl)cc1 (stereo not given) -20.7%
Cc1ccccc1OCc1nnc(SCc2cc(=O)c3ccccc3[nH]2)n1C 9.61%
COc1ccc(N(CC(=O)NCCc2cccc(C)c2)S(=O)(=O)c2c(C)nn(C)c2C)cc1 -20.9%
CCOC(=O)C1=C(CS(=O)(=O)c2c(C)cc(C)cc2C)NC(=O)NC1c1cccc(OC)c1 (stereo not given) -4.73%
COc1ccccc1N1CCN(C(CNC(=O)C(=O)NCCCN(C)C)c2cccnc2)CC1 (stereo not given) -1.45%
N#Cc1c(NC(=O)c2cc3nc(-c4ccc(Br)cc4)cc(C(F)(F)F)n3n2)sc2c1CCCC2 0.996%
O=C1CC(c2ccccc2C(F)(F)F)c2c(c3ccccc3[nH]c2=O)O1 (stereo not given) -14.5%
CCOc1ccc(OCC)c(NC(=O)C2CCN(S(=O)(=O)c3ccc(Br)s3)CC2)c1 -8.92%
COc1ccc2nc(SCC(=O)c3c(C)[nH]c4ccccc34)nc(C)c2c1 -9.77%
O=C(Nc1ccc(F)cc1)[C@H](CSCc1ccccc1)N1Cc2ccccc2C1=O -16.7%
Cc1ccc(N2CCN(C(=O)Cc3c(C(=O)O)c(C)cn3C)CC2)c(C)c1 -22%
Cc1ccc(S(=O)(=O)c2nnn3c2nc(N2CCN(c4ccc(F)cc4)CC2)c2cc(Cl)ccc23)cc1C 24.4%
O=C(COC(=O)CCCC1=NS(=O)(=O)c2ccccc2N1)Nc1ccc(Br)cc1 -18.9%
COc1cccc(-n2c(=O)c3c(C)c(C(=O)N(C)C)sc3n(CC(=O)NCCc3ccc(OC)c(OC)c3)c2=O)c1 -9.08%
Cc1cccc(NC(=O)N2CCc3c(sc4c3CCCC4)C2c2ccc(F)cc2)c1 (stereo not given) -24.4%
NC(=O)c1cccnc1
OCc1ccc(-c2nn(Cc3ccccc3)c3ccccc23)o1 -53.8%
CCc1ccc(NC(=O)CSc2nc3nccnc3c(=O)n2CCc2c[nH]c3ccccc23)cc1 -22.5%
CCc1ccc(NC(=O)C2CCN(C(=O)N3CC(CC)Oc4ccccc43)CC2)cc1 (stereo not given) -25.5%
COc1cccc(NC(=O)CCNS(=O)(=O)c2ccc(Br)s2)c1 -15.5%
COc1ccc(CNC(=O)Cc2csc3ccccc23)cc1OC 6.51%
CCc1nn(CC(=O)N2CCCCC2)c(=O)c2cc3sccc3n12 -15%
CC(NC(=O)c1cc(Sc2ccc(F)cc2F)nc2ccccc12)c1ccccc1 (stereo not given) -28.4%
CCc1ccccc1NC(=O)C1CCC(CNS(=O)(=O)c2ccc3c(c2)CC(C)N3C(C)=O)CC1 (stereo not given) -22%
COc1ccc2nc(NC(=O)c3nc(SCc4ccc(F)cc4)ncc3Cl)sc2c1 9.44%
Cc1cn2c(=O)c(S(=O)(=O)NCCc3ccccc3)c(C)nc2s1 -12.5%
CCOc1ccc(-c2nnc(SCC(=O)NCCC(C)C)nc2-c2ccc(OCC)c(OC)c2)cc1OC -1.94%
CC(C)OCCCNC(=O)c1ccc(-n2c(-c3ccccc3)cc3c2CCCC3)cc1 4.43%
COc1cccc(C(=O)NCC(c2ccc(N(C)C)cc2)N2CCCC2)c1OC (stereo not given) 6.28%
CC(C)CN1CCc2nc(N3CCN(c4ncccn4)CC3)ncc2C1 15.8%
COc1cc(-c2noc(-c3ccc(NCc4cccnc4)c([N+](=O)[O-])c3)n2)cc(OC)c1OC -8.38%
COc1ccc(OC)c(CNC(=O)CCCn2ccc3cc(S(=O)(=O)N4CCCC4)ccc32)c1 -24%
CCOc1ccc(CNC(=O)CCC(=O)N2CC(C)Sc3ccccc32)cc1 (stereo not given) -3.36%
CCOc1ccc(CCNC(=O)CCCn2nc(C)c3sc4ccccc4c3c2=O)cc1OCC -31.3%
O=C(CSc1nccn1-c1ccccc1)Nc1nc2ccccc2s1 3.79%
CCn1c2ccccc2c2nnc(SCCN3CCCCC3)nc21 -2.77%
N#C/C(=C/c1cn(Cc2ccc(F)cc2)c2ccccc12)C(=O)Nc1cccc(Cl)c1 -18.9%
COc1ccccc1Nc1nn2c(=O)c3ccc(C(=O)NCCCOC(C)C)cc3nc2s1 -30.5%
COC(=O)CC1c2cc(OC)c(OC)cc2CCN1C(=O)Nc1ccc(C)cc1Cl (stereo not given) 9.63%
CCOc1ccc(OCC)c(NC(=O)Cn2ncc3c4ccccc4n(Cc4ccccc4)c3c2=O)c1 -4.43%
CCc1ccc(CNC(=O)c2cccc(-n3cnc4cccnc43)c2C)cc1 -20.7%
CCC1CN(C(=O)N2CCC(C(=O)NCCN(C)C)CC2)c2ccccc2O1 (stereo not given) -3.16%
Cn1ccc2cc(S(=O)(=O)N3CCCN(C(=O)Nc4ccccc4Br)CC3)ccc21 -25.6%
Cc1ccc(NC(=O)c2cnc(SCC(=O)N3CCOCC3)n(C)c2=O)cc1 -14.9%
COc1cc2ccccc2cc1C(=O)Nc1cccc(-c2nc3cc(C)c(C)cc3o2)c1C -11.4%
COc1ccc2oc(=O)c(C(=O)NCCc3c(C)[nH]c4c(Cl)cccc34)cc2c1 -14%
O=C(Nc1cccc(Cl)c1Cl)c1ccc2c(c1)N(Cc1cccc(Cl)c1)C(=O)c1ccccc1S2(=O)=O -13.9%
Cc1nc2nc(NCc3cccc(Br)c3)[nH]n2c(=O)c1Cc1ccccc1 1.73%
CCc1ccccc1NC(=O)N1CCN(c2cc(-c3noc(C)n3)ccc2C)CC1 -21.8%
CCOC(=O)c1cccc(NC(=O)C(CC(C)C)N2Cc3ccccc3C2=O)c1 (stereo not given) -24%
Cc1ccc(CN(C(=O)COc2cccc([N+](=O)[O-])c2)c2ccccn2)o1 -22.5%
O=S(=O)(Nc1ccc(Cl)cc1)c1ccc(NS(=O)(=O)c2ccc3c(c2)OCCO3)cc1 -20.8%
Cn1nnnc1SCCNCc1ccc(F)cc1 -7.98%
CCC(C)NC(=O)c1cnn(-c2ccc(Cl)cc2)c1C1CCN(C(=O)OC(C)(C)C)CC1 (stereo not given) -10.2%
O=C(NCCc1ccc(Cl)cc1)c1ccc(CS(=O)Cc2cccc(Cl)c2)o1 (stereo not given) -36.9%
Nc1nnc(SCC(=O)Nc2ccccc2C(F)(F)F)s1 -10%
COC(=O)c1n[nH]n(-c2ccccc2)c1=O 0.499%
CN(C1CCCCC1)S(=O)(=O)c1ccc2c(c1)c(=O)c(C(=O)NCCc1ccccc1)cn2C 10.6% [at 11.5 µM, percent change from vehicle, -100% = no light]
Cc1cccc(NC(=O)C2CCCN(S(=O)(=O)c3cnc[nH]3)C2)c1C (stereo not given) -17.1% [at 11.5 µM, percent change from vehicle, -100% = no light]
Cc1ccc2c(c1)cc(C(=O)Nc1ccc(F)cc1F)n2C 12.9%
CCOC(=O)c1cc(NC(=O)c2ccc(F)cc2)c(=O)n2c1oc1ccccc12 -9.6%
Cc1ccc(C(=O)N(Cc2ccc(N(C)C)cc2)Cc2ccco2)cc1 -22.8%
Cn1c(=O)c2cc(C(=O)N3CCN(c4ccc(Cl)cc4)CC3)sc2c2ccccc21 -4.98%
Cc1oc(-c2ccc(C(=O)Nc3cc(F)ccc3F)cc2)nc1COc1ccccc1 -7.74%
COc1cccc(NC(=O)CN(C)S(=O)(=O)c2ccc3nc(C)sc3c2)c1 -12.6%
COc1ccc(C)cc1N(C)C(=O)c1c(C)oc2ncnc(N3CCOCC3)c12 -7.62%
CN(c1ccc(Cl)cc1)S(=O)(=O)c1nnc(NC(=O)C2CCCCC2)s1 -16.2%
COc1cc(C(=O)Oc2c(Sc3ccc(C)cc3)c(C)nn2-c2ccccc2)cc(OC)c1OC -30.9%
CCOc1ccccc1NC(=O)c1c(NC(=O)c2ccccc2C)sc2c1CCC(C)C2 (stereo not given) -7.2%
COC(=O)c1c(C)sc(-c2c(-c3ccc4c(c3)OCCO4)[nH]c3c2c(=O)n(C)c(=O)n3C)c1O -13.6%
CCNC(=O)c1cnc2sc(N3CCCCCC3)nn2c1=O 21.1%
Cc1ccc(CNC(=O)CCS(=O)(=O)c2cc(Br)cc3c2N(C(=O)C2CC2)CC3)cc1 -5.09%
COc1cc2c(c(OC)c1OC)-c1ccc(OC)c(=O)cc1[C@@H](NC(C)=O)CC2
Cc1ccc(-n2nc(CO)c(C(=O)NCc3cccs3)n2)cc1 -19.1%
O=C(Nc1ccc(Cl)cc1)N1CCN(c2ccc3nnc(-c4ccc(F)cc4)n3n2)CC1 -28.6%
